Measurements from the BET-seq Pho4 binding data (Le et al. 2018).
Some of the results follow. The energies were worked out here from pooled read counts, against the library average; single values are noisy.

These sequences were tested against T1, Pho4 (S. cerevisiae) (UniProt P07270) (assay: relative binding free energy (BET-seq); higher = weaker binding). Conditions: reference: library average.
T1 sequence: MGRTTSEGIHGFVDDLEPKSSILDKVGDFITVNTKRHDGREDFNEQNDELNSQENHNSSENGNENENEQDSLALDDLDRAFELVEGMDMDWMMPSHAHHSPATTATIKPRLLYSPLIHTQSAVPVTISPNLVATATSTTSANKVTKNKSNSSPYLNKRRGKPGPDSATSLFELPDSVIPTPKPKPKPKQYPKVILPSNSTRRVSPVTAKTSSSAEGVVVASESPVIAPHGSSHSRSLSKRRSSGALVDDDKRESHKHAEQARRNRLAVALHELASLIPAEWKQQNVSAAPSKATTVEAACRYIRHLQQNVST

Sequence	relative binding free energy [kcal/mol]
TTGGGCACGTGTGCAA	-0.2
TGGAGCACGTGGTAAT	-0.1
TAGTACACGTGTCATT	0.07
AATGACACGTGTCTTG	0.03
TGTAGCACGTGAATCG	0.24
ATCGTCACGTGGGTTC	-0.02
GTTTACACGTGCTCGG	0.1
TTTTTCACGTGGTGAA	0.39
ATGAGCACGTGGGTGT	-0.25
AGTGCCACGTGATTGA	0.04
TGGGGCACGTGGACCA	-0.07
TTTGACACGTGGGGAG	-0.08
AGGTACACGTGTCGGG	0.13
ATATACACGTGGGGTT	-0.12
TGCATCACGTGCGGTG	0.14
GTGTGCACGTGTGAGA	0.13
AAGTGCACGTGGGACG	-0.11
GTTGTCACGTGTAGTC	0.18
CGGGTCACGTGATTGG	0.16
CAGTGCACGTGTGGAG	0
GTGATCACGTGATAAG	0.25
GGGGGCACGTGCTAGG	-0.27
TGAGTCACGTGGGGTT	0.05
ACTGGCACGTGAGTAT	0.19
GGCTTCACGTGATGCT	0.38

Sequence	relative binding free energy [kcal/mol]
AGCCTCACGTGGGGGT	-0.07
GGCATCACGTGGGTTA	0.06
CTGTGCACGTGTGTAC	0.09
CGCGTCACGTGGCGTG	0.03
GGGTGCACGTGCAATG	0.06
CTGGACACGTGGCGTG	-0.16
TGTGGCACGTGTGTGT	-0.03
CAGGGCACGTGTCGGG	-0.04
CGGTGCACGTGGGCTG	-0.08
TGTGTCACGTGTACCG	0.08
TAATACACGTGGGGCG	-0.11
GCTAGCACGTGTGTAT	0.07
TGTGACACGTGGCGAG	-0.12
TGCCTCACGTGAGTGG	0.32
TATGACACGTGACGTT	0.24
GAGGTCACGTGTGCCG	0.31
GGTAACACGTGGTTTG	0.14
CAGTACACGTGGTGTG	0.02
ATAGCCACGTGTAGTT	-0.06
GAGGTCACGTGTGGAG	0.27
TGTTGCACGTGGTAAA	-0.02
GGATTCACGTGATTTT	0.54
CAGAACACGTGTGTGG	-0.02
AAGGGCACGTGAAGGG	0.23
AATTACACGTGGCGTG	-0.01

Sequence	relative binding free energy [kcal/mol]
GTCGGCACGTGAGGCG	0.14
TTTGACACGTGCCTGT	-0.14
CGCGTCACGTGTGTGT	0.12
GGGGTCACGTGGGGAC	0.04
ACGTGCACGTGTTAGA	-0.06
TAAATCACGTGTATAG	0.12
AATTGCACGTGAGGAG	0.09
CTTAGCACGTGTAATT	0.11
AACGTCACGTGGTGTA	-0.01
GGGGCCACGTGTAGTA	0.01
ATCATCACGTGTTATT	0.1
TATTCCACGTGGATGG	0.03
AGTGACACGTGGGTGA	-0.11
GCGGGCACGTGGGAAT	-0.19
CAGTTCACGTGTAGTA	0.22
AGTGACACGTGACGTG	0.13
AATATCACGTGTTGAT	0.12
TGATACACGTGGAGAG	0.03
TGATGCACGTGCGATG	0.09
TTTAACACGTGAAGTG	0.3
GTTAGCACGTGTTCAT	-0.07
GGTGACACGTGTGCAT	0.06
GTCTTCACGTGGTGTA	0.01
ATGTCCACGTGTGAGT	0.02
TGACTCACGTGGTGAG	0.21

Sequence	relative binding free energy [kcal/mol]
CAGGTCACGTGGTAAG	0.04
AGGGACACGTGCGGGT	-0.06
TCGTTCACGTGCGGGG	0.27
TAGTACACGTGTAGCG	0.05
GCATGCACGTGGGGGT	-0.18
GCTGACACGTGGTGGT	-0.08
GGGAGCACGTGTGAAG	0.09
TGTAGCACGTGAGAAT	0.13
AAGAGCACGTGGTGGG	-0.13
TTCTACACGTGTTGTA	0.08
ATTTTCACGTGGATAA	0.18
GGATACACGTGTTGAG	0.06
TTTCGCACGTGTTAAG	0.01
TGGATCACGTGGATGA	0.15
TCTGGCACGTGTTTCG	-0.05
GTTGGCACGTGTGCGA	-0.06
CGGGGCACGTGGTACG	-0.25
GAAGTCACGTGTTGGG	0.21
CGTTTCACGTGGTTGG	0.18
TGCGGCACGTGAGAGG	0.18
TATTACACGTGCGTTT	0.08
GTGCTCACGTGGTAGG	0.27
GCGTGCACGTGTTATG	0.04
TAAGACACGTGGGATG	-0.15
TTGGTCACGTGGCGTG	0.01

Sequence	relative binding free energy [kcal/mol]
ATAATCACGTGGGGTG	-0.02
TCGTTCACGTGAAGTT	0.4
GGGATCACGTGGGCAT	0.13
TTTGGCACGTGCTGCG	-0.25
ATTAGCACGTGGGTCA	-0.27
TGGGGCACGTGCCAGT	-0.19
ATATACACGTGTTTAG	-0.16
TTGTGCACGTGGGGTT	-0.08
TGATTCACGTGGTCAT	0.22
AGGGTCACGTGAGTGA	0.31
TGGTACACGTGGCGTA	-0.16
AGAGACACGTGGTATG	-0.12
TGTTACACGTGCCGGG	-0.09
GTGGTCACGTGGACGT	0.16
ATTAGCACGTGAGGTG	0.13
ATTATCACGTGTGTAG	0.12
TTGACCACGTGGGGTG	-0.26
AGTGACACGTGGTTCG	0
GGTATCACGTGTAAAG	0.29
GGGAGCACGTGGGGAT	-0.02
TGGTACACGTGTACGG	-0.04
TTTGGCACGTGGATGA	0.04
TAGTTCACGTGTTTTA	0.21
TTGCTCACGTGAGTAA	0.45
GGGTGCACGTGAAATT	0.22

Sequence	relative binding free energy [kcal/mol]
TCGGGCACGTGTATAG	-0.09
ACTTGCACGTGTGGGA	0.08
GGGTTCACGTGAGCTT	0.5
TTTGTCACGTGCATAT	0.1
AAGGGCACGTGACTGG	-0.1
GGGATCACGTGTTATA	0.03
TTTTTCACGTGTACAA	0.18
CGTGTCACGTGATGGT	0.34
AATGGCACGTGTGGGG	0.02
GTTTGCACGTGTAATG	0.25
ACTTGCACGTGTGGTC	0.11
TAGCGCACGTGGGCGG	-0.27
GTGCTCACGTGCTGTG	0.22
AATTTCACGTGGCTTT	0.2
GGGCACACGTGTCGTG	0.07
TGGACCACGTGGGGAG	-0.05
ACTGGCACGTGTTTGT	-0.26
AGAGGCACGTGCTAGT	-0.15
GTTCCCACGTGGGGTT	-0.09
TCTGTCACGTGGAGGG	0.1
GGACTCACGTGAGGGG	0.4
